Assay results taken from the supplement of paper PMC4604168 (melanoma cell lines).
This is one part of the list. Many values rest on one well or one pass, so single values are uncertain.

tested on: SkMel28; test: cell count relative to DMSO control; melanoma cells; higher = more viable cells; settings: library dose: standard library concentration; 72 h
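Further: cells treated in 1,536-well plates, then fixed and DAPI-stained, with nuclei counted from automated high-throughput microscope images.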

Row | Compound | cell count [%]
1 | C[C@]12O[C@H](C[C@]1(O)CO)n1c3ccccc3c3c4c(c5c6ccccc6n2c5c31)CNC4=O [Lestaurtinib] + O=C(O)c1ccc2c(c1)nc(Nc1cccc(Cl)c1)c1ccncc12 [CX4945] (first compound 0.02 µM, partner dose 2 µM) | 56.9
2 | N.N.[Cl][Pt][Cl] [cisplatin] + Clc1ccc(Nc2nnc(Cc3ccncc3)c3ccccc23)cc1 [vatalanib] (first compound 8 µM, partner dose 10 µM) | 79.7
3 | Cn1cc(C2=C(c3cn(C4CCN(Cc5ccccn5)CC4)c4ccccc34)C(=O)NC2=O)c2ccccc21 [Enzastaurin] + COc1cc(Nc2ncc(F)c(Nc3ccc4c(n3)NC(=O)C(C)(C)O4)n2)cc(OC)c1OC [Tamatinib] (first compound 4 µM, partner dose 2 µM) | 70.4
4 | N.N.[Cl][Pt][Cl] [cisplatin] + COc1cc(Nc2ncc(F)c(Nc3ccc4c(n3)NC(=O)C(C)(C)O4)n2)cc(OC)c1OC [Tamatinib] (first compound 8 µM, partner dose 2 µM) | 55.2
5 | C[C@]12O[C@H](C[C@]1(O)CO)n1c3ccccc3c3c4c(c5c6ccccc6n2c5c31)CNC4=O [Lestaurtinib] + Nc1ncn([C@H]2C[C@H](O)[C@@H](CO)O2)c(=O)n1 [decitabine] (first compound 0.02 µM, partner dose 0.5 µM) | 52.9
6 | C[As](C)SC[C@H](NC(=O)CC[C@H](N)C(=O)O)C(=O)NCC(=O)O [Darinaparsin] + CCc1ccc(CCOc2ccc(CC3SC(=O)NC3=O)cc2)nc1 [pioglitazone] (first compound 2 µM, partner dose 10 µM) | 69
7 | C[As](C)SC[C@H](NC(=O)CC[C@H](N)C(=O)O)C(=O)NCC(=O)O [Darinaparsin] + O=C1NC(=O)/C(=C/c2ccc(-c3ccc(F)cc3O)o2)S1 [AS252424] (first compound 2 µM, partner dose 5 µM) | 118
8 | C[C@]12O[C@H](C[C@]1(O)CO)n1c3ccccc3c3c4c(c5c6ccccc6n2c5c31)CNC4=O [Lestaurtinib] + COc1ccc(Cl)c(Nc2nc3ccccc3nc2NS(=O)(=O)c2cccc(NC(=O)C(C)(C)N)c2)c1 [XL147] (first compound 0.02 µM, partner dose 4 µM) | 78.4
9 | Cn1cc(C2=C(c3cn(C4CCN(Cc5ccccn5)CC4)c4ccccc34)C(=O)NC2=O)c2ccccc21 [Enzastaurin] + OCc1c[nH]c2ccccc12 [Indole-3-carbinol] (first compound 4 µM, partner dose 4 µM) | 99.3
10 | C[As](C)SC[C@H](NC(=O)CC[C@H](N)C(=O)O)C(=O)NCC(=O)O [Darinaparsin] + O=c1cc(-c2cccc3c2Sc2ccccc2S3)oc(N2CCOCC2)c1 [KU55933] (first compound 2 µM, partner dose 5 µM) | 54.8
11 | Cn1cc(C2=C(c3cn(C4CCN(Cc5ccccn5)CC4)c4ccccc34)C(=O)NC2=O)c2ccccc21 [Enzastaurin] + Cc1cc(N2CCOCC2)cc2[nH]c(-c3c(NC[C@@H](O)c4cccc(Cl)c4)cc[nH]c3=O)nc12 [BMS536924] (first compound 4 µM, partner dose 1 µM) | 74.5
12 | Cn1cc(C2=C(c3cn(C4CCN(Cc5ccccn5)CC4)c4ccccc34)C(=O)NC2=O)c2ccccc21 [Enzastaurin] + NC(=O)Nc1cc(-c2cccc(F)c2)sc1C(=O)N[C@H]1CCCNC1 [AZD7762] (first compound 4 µM, partner dose 0.1 µM) | 40.1
13 | N.N.[Cl][Pt][Cl] [cisplatin] + CC(C)(C)c1cnc(CSc2cnc(NC(=O)C3CCNCC3)s2)o1 [SNS-032] (first compound 8 µM, partner dose 0.05 µM) | 80.7
14 | N.N.[Cl][Pt][Cl] [cisplatin] + OCCn1cc(-c2cnc3nnn(Cc4ccc5ncccc5c4)c3n2)cn1 [PF04217903] (first compound 8 µM, partner dose 5 µM) | 81
15 | Cn1cc(C2=C(c3cn(C4CCN(Cc5ccccn5)CC4)c4ccccc34)C(=O)NC2=O)c2ccccc21 [Enzastaurin] + N.N.[Cl][Pt][Cl] [cisplatin] (first compound 4 µM, partner dose 8 µM) | 121
16 | C[C@]12O[C@H](C[C@]1(O)CO)n1c3ccccc3c3c4c(c5c6ccccc6n2c5c31)CNC4=O [Lestaurtinib] + OCCn1cc(-c2cnc3nnn(Cc4ccc5ncccc5c4)c3n2)cn1 [PF04217903] (first compound 0.02 µM, partner dose 5 µM) | 104
17 | Cn1cc(C2=C(c3cn(C4CCN(Cc5ccccn5)CC4)c4ccccc34)C(=O)NC2=O)c2ccccc21 [Enzastaurin] + COc1ccc(Cl)c(Nc2nc3ccccc3nc2NS(=O)(=O)c2cccc(NC(=O)C(C)(C)N)c2)c1 [XL147] (first compound 4 µM, partner dose 4 µM) | 73.7
18 | C[As](C)SC[C@H](NC(=O)CC[C@H](N)C(=O)O)C(=O)NCC(=O)O [Darinaparsin] + O=C(O)c1ccc(-c2c[nH]c3ncc(-c4ccccc4)cc23)cc1C1CCCC1 [GSK650394] (first compound 2 µM, partner dose 0.8 µM) | 64.3
19 | C[As](C)SC[C@H](NC(=O)CC[C@H](N)C(=O)O)C(=O)NCC(=O)O [Darinaparsin] + COc1cc2ncnc(Nc3ccc(Oc4ccccc4)cc3)c2cc1OC [SrcI1] (first compound 2 µM, partner dose 10 µM) | 55.6
20 | N.N.[Cl][Pt][Cl] [cisplatin] + C=CCNC1=C2C[C@@H](C)C[C@H](OC)[C@H](O)[C@@H](C)/C=C(\C)[C@H](OC(N)=O)[C@@H](OC)/C=C\C=C(/C)C(=O)NC(=CC1=O)C2=O [Tanespimycin] (first compound 8 µM, partner dose 0.01 µM) | 63.5
21 | C[C@]12O[C@H](C[C@]1(O)CO)n1c3ccccc3c3c4c(c5c6ccccc6n2c5c31)CNC4=O [Lestaurtinib] + Cn1c(Nc2ccc(C(F)(F)F)cc2)nc2cc(Oc3ccnc(-c4ncc(C(F)(F)F)[nH]4)c3)ccc21 [CHIR265] (first compound 0.02 µM, partner dose 0.4 µM) | 48.9
